# According to article PMC12820563, “FoxP3 forms a head-to-head dimer in vivo and stabilizes its multimerization on adjacent microsatellites”:
# The other results are listed elsewhere or left out.
# Molecular target: T1, MBP-FoxP1dN (Mus musculus, UniProt P58462 326-579)
# T1 sequence: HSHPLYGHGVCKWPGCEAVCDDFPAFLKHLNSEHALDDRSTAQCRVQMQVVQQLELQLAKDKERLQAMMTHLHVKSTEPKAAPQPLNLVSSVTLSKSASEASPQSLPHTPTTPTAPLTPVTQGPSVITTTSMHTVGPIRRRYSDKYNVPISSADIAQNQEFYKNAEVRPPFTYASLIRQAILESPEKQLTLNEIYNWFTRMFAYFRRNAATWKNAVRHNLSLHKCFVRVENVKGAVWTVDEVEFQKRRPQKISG
# Test: PD-seq (MBP pull-down with sequencing); 20 mM Tris-HCl pH 7.5, 100 mM NaCl, 1.5 mM MgCl2, 0.4 uM protein, 0.1 uM dsDNA library, 30 min, room temperature, amylose pull-down; high values mean tight binding
# Conditions: protein: recombinant; tags: His6-MBP; chain copies: 2; dsDNA, one strand shown
# How it was run: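 In Tris pH 7.5 buffer with NaCl and MgCl2, 0.4 µM His6-MBP-tagged mouse FoxP3 or FoxP1 fragment lacking the N-terminus, from E. coli, met 0.1 µM Klenow-filled double-stranded degenerate DNA library for 30 min at room temperature. Three washes on amylose resin followed capture of the complexes, then proteinase K release of DNA, PCR barcoding and Illumina sequencing. Binding is taken as pooled-replicate reads-per-million enrichment of pull-down relative to input.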
row,Sequence,binding signal
1,GATGATTGTTCTCCCAGCTGATGAATTTACTGGCTCGAGTAAACAAATTTTCCTAATCTTTCTGTTCAAGCGCCATCTAC,0.992 RPM ratio (pull-down/input)
2,GATGATTGTTCTCCCAGCTGATGAATTGCTGTAATCGAGTAAACAAATTTTCCTAATCTTTCTGTTCAAGCGCCATCTAC,1.51 RPM ratio (pull-down/input)
3,GATGATTGTTCTCCCAGCTGATGAATTGATATCGTCGAGTAAACAAATTTTCCTAATCTTTCTGTTCAAGCGCCATCTAC,1.2 RPM ratio (pull-down/input)
4,GATGATTGTTCTCCCAGCTGATGAATTGGATCGCTCGAGTAAACAAATTTTCCTAATCTTTCTGTTCAAGCGCCATCTAC,0.797 RPM ratio (pull-down/input)
5,GATGATTGTTCTCCCAGCTGATGAATTAGACCTATCGAGTAAACAAATTTTCCTAATCTTTCTGTTCAAGCGCCATCTAC,0.894 RPM ratio (pull-down/input)
6,GATGATTGTTCTCCCAGCTGATGAATTTTTTTTTTCGAGTAAACAAATTTTCCTAATCTTTCTGTTCAAGCGCCATCTAC,0.65 RPM ratio (pull-down/input)
7,GATGATTGTTCTCCCAGCTGATGAATTGGGGACATCGAGTAAACAAATTTTCCTAATCTTTCTGTTCAAGCGCCATCTAC,0.943 RPM ratio (pull-down/input)
8,GATGATTGTTCTCCCAGCTGATGAATTTCTGATTTCGAGTAAACAAATTTTCCTAATCTTTCTGTTCAAGCGCCATCTAC,1.07 RPM ratio (pull-down/input)
9,GATGATTGTTCTCCCAGCTGATGAATTATTTTGATCGAGTAAACAAATTTTCCTAATCTTTCTGTTCAAGCGCCATCTAC,1.5 RPM ratio (pull-down/input)
10,GATGATTGTTCTCCCAGCTGATGAATTTCGACAGTCGAGTAAACAAATTTTCCTAATCTTTCTGTTCAAGCGCCATCTAC,0.878 RPM ratio (pull-down/input)
11,GATGATTGTTCTCCCAGCTGATGAATTTAAGCGATCGAGTAAACAAATTTTCCTAATCTTTCTGTTCAAGCGCCATCTAC,0.889 RPM ratio (pull-down/input)
12,GATGATTGTTCTCCCAGCTGATGAATTACTGCGTTCGAGTAAACAAATTTTCCTAATCTTTCTGTTCAAGCGCCATCTAC,1.13 RPM ratio (pull-down/input)
13,GATGATTGTTCTCCCAGCTGATGAATTTGATCGCTCGAGTAAACAAATTTTCCTAATCTTTCTGTTCAAGCGCCATCTAC,0.799 RPM ratio (pull-down/input)
14,GATGATTGTTCTCCCAGCTGATGAATTAGTGGGGTCGAGTAAACAAATTTTCCTAATCTTTCTGTTCAAGCGCCATCTAC,0.915 RPM ratio (pull-down/input)
15,GATGATTGTTCTCCCAGCTGATGAATTAGTAACCTCGAGTAAACAAATTTTCCTAATCTTTCTGTTCAAGCGCCATCTAC,1.03 RPM ratio (pull-down/input)
16,GATGATTGTTCTCCCAGCTGATGAATTTCTTCAGTCGAGTAAACAAATTTTCCTAATCTTTCTGTTCAAGCGCCATCTAC,0.88 RPM ratio (pull-down/input)
17,GATGATTGTTCTCCCAGCTGATGAATTACAAAGATCGAGTAAACAAATTTTCCTAATCTTTCTGTTCAAGCGCCATCTAC,1.2 RPM ratio (pull-down/input)
18,GATGATTGTTCTCCCAGCTGATGAATTTAAAAACTCGAGTAAACAAATTTTCCTAATCTTTCTGTTCAAGCGCCATCTAC,0.881 RPM ratio (pull-down/input)
19,GATGATTGTTCTCCCAGCTGATGAATTCATGAGATCGAGTAAACAAATTTTCCTAATCTTTCTGTTCAAGCGCCATCTAC,0.859 RPM ratio (pull-down/input)
20,GATGATTGTTCTCCCAGCTGATGAATTTCTCTGCTCGAGTAAACAAATTTTCCTAATCTTTCTGTTCAAGCGCCATCTAC,0.812 RPM ratio (pull-down/input)
21,GATGATTGTTCTCCCAGCTGATGAATTTCTCGGTTCGAGTAAACAAATTTTCCTAATCTTTCTGTTCAAGCGCCATCTAC,0.889 RPM ratio (pull-down/input)

row,Sequence,binding signal
1,GATGATTGTTCTCCCAGCTGATGAATTTTTGTTCTCGAGTAAACAAATTTTCCTAATCTTTCTGTTCAAGCGCCATCTAC,0.963 RPM ratio (pull-down/input)
2,GATGATTGTTCTCCCAGCTGATGAATTCAGAATATCGAGTAAACAAATTTTCCTAATCTTTCTGTTCAAGCGCCATCTAC,0.933 RPM ratio (pull-down/input)
3,GATGATTGTTCTCCCAGCTGATGAATTGTAAGCCTCGAGTAAACAAATTTTCCTAATCTTTCTGTTCAAGCGCCATCTAC,0.983 RPM ratio (pull-down/input)
4,GATGATTGTTCTCCCAGCTGATGAATTACTATCTTCGAGTAAACAAATTTTCCTAATCTTTCTGTTCAAGCGCCATCTAC,1.12 RPM ratio (pull-down/input)
5,GATGATTGTTCTCCCAGCTGATGAATTGTCGGCCTCGAGTAAACAAATTTTCCTAATCTTTCTGTTCAAGCGCCATCTAC,0.864 RPM ratio (pull-down/input)
6,GATGATTGTTCTCCCAGCTGATGAATTTCTATACTCGAGTAAACAAATTTTCCTAATCTTTCTGTTCAAGCGCCATCTAC,0.903 RPM ratio (pull-down/input)
7,GATGATTGTTCTCCCAGCTGATGAATTTAGGATCTCGAGTAAACAAATTTTCCTAATCTTTCTGTTCAAGCGCCATCTAC,0.911 RPM ratio (pull-down/input)
8,GATGATTGTTCTCCCAGCTGATGAATTCACTTCCTCGAGTAAACAAATTTTCCTAATCTTTCTGTTCAAGCGCCATCTAC,0.808 RPM ratio (pull-down/input)
9,GATGATTGTTCTCCCAGCTGATGAATTACGGGGGTCGAGTAAACAAATTTTCCTAATCTTTCTGTTCAAGCGCCATCTAC,0.863 RPM ratio (pull-down/input)
10,GATGATTGTTCTCCCAGCTGATGAATTGAATAGATCGAGTAAACAAATTTTCCTAATCTTTCTGTTCAAGCGCCATCTAC,0.905 RPM ratio (pull-down/input)
11,GATGATTGTTCTCCCAGCTGATGAATTAATCCTATCGAGTAAACAAATTTTCCTAATCTTTCTGTTCAAGCGCCATCTAC,0.93 RPM ratio (pull-down/input)
12,GATGATTGTTCTCCCAGCTGATGAATTGCCTAATTCGAGTAAACAAATTTTCCTAATCTTTCTGTTCAAGCGCCATCTAC,1.1 RPM ratio (pull-down/input)
13,GATGATTGTTCTCCCAGCTGATGAATTGTTTACGTCGAGTAAACAAATTTTCCTAATCTTTCTGTTCAAGCGCCATCTAC,2.79 RPM ratio (pull-down/input)
14,GATGATTGTTCTCCCAGCTGATGAATTTGGATTTTCGAGTAAACAAATTTTCCTAATCTTTCTGTTCAAGCGCCATCTAC,1.02 RPM ratio (pull-down/input)
15,GATGATTGTTCTCCCAGCTGATGAATTTAATTCCTCGAGTAAACAAATTTTCCTAATCTTTCTGTTCAAGCGCCATCTAC,0.817 RPM ratio (pull-down/input)
16,GATGATTGTTCTCCCAGCTGATGAATTCCCATGGTCGAGTAAACAAATTTTCCTAATCTTTCTGTTCAAGCGCCATCTAC,0.802 RPM ratio (pull-down/input)
17,GATGATTGTTCTCCCAGCTGATGAATTACGCGGCTCGAGTAAACAAATTTTCCTAATCTTTCTGTTCAAGCGCCATCTAC,0.852 RPM ratio (pull-down/input)
18,GATGATTGTTCTCCCAGCTGATGAATTATATGTGTCGAGTAAACAAATTTTCCTAATCTTTCTGTTCAAGCGCCATCTAC,1.21 RPM ratio (pull-down/input)
19,GATGATTGTTCTCCCAGCTGATGAATTTGTATGATCGAGTAAACAAATTTTCCTAATCTTTCTGTTCAAGCGCCATCTAC,1.21 RPM ratio (pull-down/input)
20,GATGATTGTTCTCCCAGCTGATGAATTATACAACTCGAGTAAACAAATTTTCCTAATCTTTCTGTTCAAGCGCCATCTAC,1.33 RPM ratio (pull-down/input)
21,GATGATTGTTCTCCCAGCTGATGAATTACACTTATCGAGTAAACAAATTTTCCTAATCTTTCTGTTCAAGCGCCATCTAC,1.21 RPM ratio (pull-down/input)

row,Sequence,binding signal
1,GATGATTGTTCTCCCAGCTGATGAATTAAGCGTTTCGAGTAAACAAATTTTCCTAATCTTTCTGTTCAAGCGCCATCTAC,0.989 RPM ratio (pull-down/input)
2,GATGATTGTTCTCCCAGCTGATGAATTATTTTTCTCGAGTAAACAAATTTTCCTAATCTTTCTGTTCAAGCGCCATCTAC,1.34 RPM ratio (pull-down/input)
3,GATGATTGTTCTCCCAGCTGATGAATTAACGTCATCGAGTAAACAAATTTTCCTAATCTTTCTGTTCAAGCGCCATCTAC,1.15 RPM ratio (pull-down/input)
4,GATGATTGTTCTCCCAGCTGATGAATTCCGGGCGTCGAGTAAACAAATTTTCCTAATCTTTCTGTTCAAGCGCCATCTAC,0.856 RPM ratio (pull-down/input)
5,GATGATTGTTCTCCCAGCTGATGAATTGGAAAAATCGAGTAAACAAATTTTCCTAATCTTTCTGTTCAAGCGCCATCTAC,1.01 RPM ratio (pull-down/input)
6,GATGATTGTTCTCCCAGCTGATGAATTTCAATTATCGAGTAAACAAATTTTCCTAATCTTTCTGTTCAAGCGCCATCTAC,1.01 RPM ratio (pull-down/input)
7,GATGATTGTTCTCCCAGCTGATGAATTGCCGTTCTCGAGTAAACAAATTTTCCTAATCTTTCTGTTCAAGCGCCATCTAC,0.957 RPM ratio (pull-down/input)
8,GATGATTGTTCTCCCAGCTGATGAATTGAAGACCTCGAGTAAACAAATTTTCCTAATCTTTCTGTTCAAGCGCCATCTAC,0.728 RPM ratio (pull-down/input)
9,GATGATTGTTCTCCCAGCTGATGAATTCTGCCATTCGAGTAAACAAATTTTCCTAATCTTTCTGTTCAAGCGCCATCTAC,0.854 RPM ratio (pull-down/input)
10,GATGATTGTTCTCCCAGCTGATGAATTTCTGTTTTCGAGTAAACAAATTTTCCTAATCTTTCTGTTCAAGCGCCATCTAC,2.32 RPM ratio (pull-down/input)
11,GATGATTGTTCTCCCAGCTGATGAATTCTGCGTATCGAGTAAACAAATTTTCCTAATCTTTCTGTTCAAGCGCCATCTAC,0.998 RPM ratio (pull-down/input)
12,GATGATTGTTCTCCCAGCTGATGAATTCTGGTCGTCGAGTAAACAAATTTTCCTAATCTTTCTGTTCAAGCGCCATCTAC,0.791 RPM ratio (pull-down/input)
13,GATGATTGTTCTCCCAGCTGATGAATTTAAGGTGTCGAGTAAACAAATTTTCCTAATCTTTCTGTTCAAGCGCCATCTAC,0.883 RPM ratio (pull-down/input)
14,GATGATTGTTCTCCCAGCTGATGAATTACAATTCTCGAGTAAACAAATTTTCCTAATCTTTCTGTTCAAGCGCCATCTAC,1.38 RPM ratio (pull-down/input)
15,GATGATTGTTCTCCCAGCTGATGAATTCGTTGAGTCGAGTAAACAAATTTTCCTAATCTTTCTGTTCAAGCGCCATCTAC,0.83 RPM ratio (pull-down/input)
16,GATGATTGTTCTCCCAGCTGATGAATTATTTAGTTCGAGTAAACAAATTTTCCTAATCTTTCTGTTCAAGCGCCATCTAC,1.41 RPM ratio (pull-down/input)
17,GATGATTGTTCTCCCAGCTGATGAATTCCCGGGCTCGAGTAAACAAATTTTCCTAATCTTTCTGTTCAAGCGCCATCTAC,0.662 RPM ratio (pull-down/input)
18,GATGATTGTTCTCCCAGCTGATGAATTCACAGCGTCGAGTAAACAAATTTTCCTAATCTTTCTGTTCAAGCGCCATCTAC,0.894 RPM ratio (pull-down/input)
19,GATGATTGTTCTCCCAGCTGATGAATTCCTATTTTCGAGTAAACAAATTTTCCTAATCTTTCTGTTCAAGCGCCATCTAC,1.86 RPM ratio (pull-down/input)
20,GATGATTGTTCTCCCAGCTGATGAATTACATGTGTCGAGTAAACAAATTTTCCTAATCTTTCTGTTCAAGCGCCATCTAC,1.16 RPM ratio (pull-down/input)
21,GATGATTGTTCTCCCAGCTGATGAATTCCAAAGTTCGAGTAAACAAATTTTCCTAATCTTTCTGTTCAAGCGCCATCTAC,0.81 RPM ratio (pull-down/input)
